Screen size: about 150,000 compounds; about 540 (0.36%) showed an effect of 50% or more. The list shows a part of the results.
Test system: Plasmodium falciparum
Assay: Primary screen in NF54 nanoGlo assay, in single point, at 2uM, 72h; a lower Z score goes with more inhibition
Assay type: functional, Erythrocyte
Conditions: timepoint 72 hour

Compound	% Inhibition	Z score
CC(C)CNC(=O)C1C(c2ccc(NC(=O)c3cccs3)cc2)OC(=O)N1Cc1ccc(F)cc1 (configuration not stated)	9%	-1.3
CC(C)n1ncc(C2(c3cnn(C(C)C)c3NC(=Nc3ccccc3)N(C)C)C(=O)Nc3ccccc32)c1NC(=Nc1ccccc1)N(C)C (configuration not stated)	-5%	0.84
N#Cc1ccc(CN2C[C@@H]3C[C@H]2C(=O)NC[C@@H]2CCC[C@@H](CCOc4ccccc4C(=O)N3)O2)cc1	28%	-3.13
CCOC(=O)c1c(C)nc(C)c(C(=O)OCC)c1-c1ccccn1	-32%	3.72
CC(C)N1CCN(c2nc(-c3ccc(Cl)cc3)c3c(N)n(C)nc3n2)CC1	-4%	0.48
CC(C)n1ccnc1CNc1ccccc1-n1nccn1	-17%	1.81
COC(=O)N1CC(NCc2c(C)nn(C(C)(C)C)c2C)C1	-9%	0.93
CN(Cc1nnnn1C)C(=O)C1(C)CC2CCC1O2 (configuration not stated)	0%	-0.03
CCOC(=O)CCC(=O)Nc1cc(Cl)ccc1OC[C@H]1CCCO1	11%	-1.8
N#Cc1ccc(-c2nc(-c3ccc(S(=O)(=O)N4CCCCC4)cc3)no2)cc1	2%	-0.28
O=C(O)C(CNC(=O)C1C2Cc3c(Cl)cccc3C21)CC1CC1 (configuration not stated)	-9%	1.84
Cn1cc(-c2cc(CN3C[C@H](F)C[C@H]3C(N)=O)on2)cn1	5%	-0.67
O=C([C@H]1CC(=O)N(c2ccc(F)cc2)C1)N1CCCC1	-4%	0.4
Cc1noc(C)c1CNC(C)CC(O)c1ccc(F)cc1 (configuration not stated)	-4%	0.56
COC[C@H](C)NC(=O)Cn1ncc(=O)c2ccccc21	2%	-0.28
COc1cc(-c2cn(CCS(=O)(=O)N3CCCC3)nn2)cc2c1OCO2	2%	-0.37
C[C@H]1CN(c2cccc(Cl)c2)C(=O)CN1C(=O)c1ccc(Cl)cc1F	-17%	3.42
Cn1nc(C(=O)Nc2cccc3cccnc23)ccc1=O	-16%	1.59
O=C(NCc1ccco1)c1cccc(S(=O)(=O)Nc2ccccc2-c2ccccc2)c1	-11%	1.62
COc1nnc(NC(=O)NCc2cc(Br)cnc2OC)s1	-2%	0.29
OCCOCCNCc1ccccc1F	5%	-0.97
Cc1cc(=O)[nH]c(CNc2cc(CC(C)C)ncn2)n1	-8%	1.1

Compound	% Inhibition	Z score
C[C@H]1CN(Cc2ncccn2)CCC1(F)F	-10%	1.27
N#CC1(C(=O)NCCC2=CCOCC2)CCCCC1	-5%	0.75
COc1ccc(C(=O)N2CCC3(CC2)N[C@@H](C)C(=O)N3C2CC2)cc1	-6%	0.69
Cc1[nH]c2ccc(NC(=O)c3ccccc3)cc2c1[C@H](Nc1ccccn1)c1ccccn1	-5%	0.82
COCCCNc1ccc(F)cc1S(=O)(=O)NC1CC(C)C1 (configuration not stated)	-6%	1.09
CCc1csc(CNC(=O)c2ccc(N(C)Cc3cnccn3)nc2)n1	-6%	1.15
C[C@@H](Cc1ccsc1)NC(=O)N1CCOCC1	-6%	0.61
C[C@@H](c1ccc2c(c1)OCCO2)N(C)C(=O)NCCc1nc(C2CC2)no1	-8%	0.9
CCN(CCC(=O)NCC(C)C)C(=O)c1cc(C)oc1C	7%	-0.69
COc1ccc(Cl)cc1CNCc1cnccc1N(C)C	-3%	0.5
CC(C)c1noc(NC2CC3CCC2O3)n1 (configuration not stated)	17%	-1.98
CCc1nnc(-c2c(C)c(S(=O)(=O)Nc3ccc(OC)cc3)c(C)n2C)o1	4%	-0.61
CC(C)[C@@]1(CO)CCCN(Cc2nnnn2C)C1	-4%	0.59
NC(=O)NC(CC(=O)NCC1CC2c3ccccc3C1c1ccccc12)c1ccccc1Cl (configuration not stated)	-5%	0.6
Cn1cnnc1C1CCCN(S(=O)(=O)[C@H]2C[C@@H]2c2ccccc2)C1 (some centres not stated)	-6%	1.22
CC1CCC(NC(=O)NCCCn2ccnn2)C(C)C1 (configuration not stated)	-6%	0.66
CN1CCn2ccnc2C12CCN(C(=O)Nc1ccccc1C(F)(F)F)CC2	-2%	0.29
CC1CCN(C(=O)CCC(=O)N2CCCN(c3nc4cccnc4s3)CC2)CC1	-11%	1.1
CC(C)CCN1CC(C)CC(C(=O)O)C1 (configuration not stated)	8%	-1.1
CO[C@@H](CNC(=O)NC1CCCC1)c1ccc(C)s1	15%	-1.95
CC(C)N(CC(O)COC1C2(C)CCC(C2)C1(C)C)C(C)C (configuration not stated)	28%	-3.67
CCOCCC1(CN[C@@H](C)c2cn[nH]c2)CC1	-10%	1.81

Compound	% Inhibition	Z score
O=C(c1cccs1)N1CC[C@H](n2cnnc2-c2ccccc2)C1	3%	-0.5
CC(C)OCCCNS(=O)(=O)N1CC(C)OC(C)C1 (configuration not stated)	-12%	1.64
N#Cc1cccc(C(=O)N2CCC[C@H](c3nccn3CC3CC3)C2)c1	-5%	0.99
CC(C)(C)OC(=O)N(CCCCNC(=O)CC#N)OCc1ccccc1	-11%	2.13
CN(C)c1ccnc(C(=O)N2CCN([C@H](C#N)c3ccccc3)CC2)c1	-5%	0.41
CCn1nncc1CNC1CCC2(CCOCC2)CC1	25%	-2.78
O=C(NCCc1coc(-c2ccc(F)cc2)n1)c1ccc2nc3n(c2c1)CCC3	-1%	0.08
CCc1nn(CCc2ccccn2)c(=O)c(C#N)c1CC	-9%	1.03
CCCc1nc(N2CCCN(C(=O)C(C)C)CC2)c2c(C)nn(-c3ccccc3)c2n1	-7%	0.65
Cc1ccc(S(=O)(=O)N[C@H]2CCN(c3nccs3)C2)cc1C	-8%	1.58
CCN1c2cc(C)ccc2-n2cccc2C12CCN(C(=O)Nc1cc(Cl)c(OC)cc1OC)CC2	-13%	1.83
Cc1cnc(CCNC(=O)c2nccn2C)n1C1CC1	-4%	0.67
COC(=O)c1cc(O)cc(C(=O)N(C)CCC2(O)CCCC2)c1	-12%	2.08
COc1ccc(CCc2nc(NC(=O)C(C)C)n[nH]2)cc1OC	13%	-1.63
CC[C@H](C)OCC(=O)N1CCCCO1	-7%	1.29
C#CCOC[C@@H](O)CN(Cc1ccc(C)cc1)C(C)C	-9%	1.18
CC(C)Cn1cncc1CNC1CCN(c2ncnc3[nH]cnc23)CC1	8%	-1.13
Cc1c(-c2cccc(C(=O)N3CCC(c4nncn4C)CC3)c2)cnn1C	-6%	1.1
Cc1nn(Cc2ccccc2)c(Cl)c1CN1CCCCC1	3%	-0.4
COCc1cc(=O)n(CC(=O)Nc2cccc(C)c2C)c(N2CCOCC2)n1	35%	-1.2
CC(C)c1csc(C(=O)N2CCn3c(C(N)=O)cnc3C2)n1	-15%	1.56
NS(=O)(=O)NC1CN(C(=O)CC2CC3CCC2C3)C1 (configuration not stated)	-2%	0.21

Compound	% Inhibition	Z score
CCc1nnc(CNC(=O)c2cccc(-c3ccc(C(C)C)nn3)c2)s1	-5%	0.68
CC[C@@H](C#N)NC(=O)c1ccc(Br)c(Cl)c1	-15%	1.89
COc1ccc(CCNC(=O)C[C@@H]2N=C(O)N(c3ccc(OC)cc3)C2=O)cc1	0%	0.04
Cn1ccc(CC(=O)NCCCCN2C(=O)c3ccccc3C2=O)n1	-3%	0.51
CCn1nccc1-c1nc(Cc2ccccc2OC)n[nH]1	-11%	1.56
CN(CC1CC1)C(=O)C1CCC(=O)N(C2CC2)C1c1ccnn1C (configuration not stated)	-5%	0.63
Cc1cc(=O)c(C(=O)N2CCN(CC(C)C)CC2)c[nH]1	-7%	0.63
COc1ccccc1CCNC(=O)C(C)C	-17%	1.53
N#Cc1c(NC(=O)[C@H]2CCS(=O)(=O)C2)sc2c1CCCCC2	-10%	1.93
CCn1ccc(C(=O)N2CCC3(CC2)CC(=O)N(CCCc2ccccc2)C3)n1	3%	-0.63
COc1ccnc(CN2CCC(CNC(=O)c3cnccn3)CC2)c1OC	-5%	0.69
CCOC(=O)C1(O)CCN(c2ccc3nc(C)nn3n2)CC1	0%	0.05
CCc1nc(CN(C)Cc2cnc3ccccc3c2)n[nH]1	0%	-0.05
Cc1nc(-c2cccs2)sc1CNC(=O)Cc1cccs1	-3%	0.62
CCS(=O)(=O)c1ccc(Cl)c(C(=O)Nc2c(C)noc2C2CC2)c1	6%	-0.86
COc1cc(OC)cc([C@@H](NC(=O)CCNS(=O)(=O)c2ccc(C)c(C)c2)c2nccn2C)c1	2%	-0.29
O=C(Nc1ccccc1)C1CCN(C(=O)c2sc3ccccc3c2Cl)CC1	-8%	1.19
NC[C@H]1Cc2c(F)ccc(-c3ccc(-c4nc5ccccc5[nH]4)o3)c2O1	-14%	2.32
CN(C)c1nc(N2CCN(c3ccccc3F)CC2)nc2c1CN(C(=O)c1cccc(F)c1)CC2	-5%	0.66
CCC#CCN1CCOc2c(O)cc(-c3nc(C)cnc3C)cc2C1	7%	-0.88

Source: ChEMBL document CHEMBL4888484, “Replenishing the malaria drug discovery pipeline: Screening and hit evaluation of the MMV Hit Generation Library 1 (HGL1) against asexual blood stage Plasmodium falciparum ,using a nano luciferase reporter read-out” (2022)
